Results from patent publication US12221481B2, “CD19 binding molecules and uses thereof” (Novartis AG, priority 2019, dated 2025).

Experiments:
[1] = system: T cells; assay: TBM and BBM mediated T cell proliferation (Example 20); format: cell-based, human
Experimental: Briefly, OCI-LY-19, Karpas422, and Toledo target cells stably expressing firefly luciferase were plated in a 96 well plate in T Cell Media (TCM) (RPMI-1640, ThermoFisher Scientific, Cat #11875-085), 10% FBS (Seradigm, Cat #1500-500), 1% L-Glutamine (Thermo Fisher Scientific, Cat #25830-081), 1% Non Essential Amino Acids (Thermo Fisher Scientific, Cat #11140-050), 1% Pen/Strep (Thermo Fisher Scientific, Cat #15070063), 1% HEPES (Thermo Fisher Scientific, Cat #15630080), Sodium Pyruvate (Thermo Fisher Scientific, Cat #11360-070), 0.1% Beta-mercaptoethanol (Thermo Fisher Scientific, Cat #21985-023)]. PBMCs previously isolated and cryopreserved from 2 Leukopak donors were thawed and Pan T cells were isolated (as described earlier). Isolated T cells were labelled with 5 μM Cell Trace Violet (CTV) (Thermo Fisher Scientific, Cat #C34557) following the manufacturer's protocol and were co-cultured with target cells at an E:T ratio of 1:3. A dilution series of CD3med TSP1, CD3hi TSP1, CD3hi BSP1, CD3hi TSP1C, and blinatumomab ranging from 2.5 nM-0.0006 nM was added to cells and the plates were incubated in a 5% CO2, 37° C. incubator for 96 hrs. […]

[2] = system: CD8+CD28+ and CD8+CD28- T cells; assay: Proliferation, cytokine production and surface phenotype of sorted CD28+ / CD28- CD8 T cells co-cultured with Nalm6 (Example 26); format: cell-based, human
From the text: Nalm-6 target cells stably expressing firefly luciferase were irradiated at 50Gy on the day of the assay set up. Peripheral blood mononuclear cells (PBMCs) previously isolated from buffy coat donors (Bern Hospital) and cryopreserved were thawed and total T cells were isolated by negative selection using the human Pan T cell Isolation Kit (Miltenyi Biotec, Cat #130-096-535) following the manufacturer's protocol. The positive fraction (called PBMCs-T cells depleted) was irradiated at 50Gy in order to be used as feeder for the co-culture. From the negative fraction, enriched in total T cells, CD8^+ T cells were isolated by an additional step of negative selection using EasySep™ Human CD8^+ T Cell Enrichment Kit (Stem Cell, Cat #19053). Untouched CD8^+ cells were then stained with an anti-CD28 antibody (Biolegend, Cat #302922) and sorted with a FACSAria (BD) according to CD28 expression: CD8^+CD28^+ and CD8^+CD28^−. The purity of sorted cells was >95%.
After sorting, T cells were labelled with 2.5 μM of Carboxyfluorescein succinimidyl ester (CFSE, Thermo Scientific, Cat #C34554) following the manufacturer's protocol.
Each T cell subset (either CD8^+CD28^+ or CD8^+CD28^−) of CFSE-labelled T cells was co-cultured with Nalm6 target cells, seeding 50,000 T cells and 50,000 target cells to achieve an effector: target (E:T) ratio of 1:1. Cells were diluted and co-plated to obtain additional final E:T ratio of 1:3 or 1:6.
In the co-culture conditions where the presence of irradiated PBMCs-T cells depleted was required, 10,000 PBMCs were plated to obtain a 5:1 ratio, effector T cells: PBMCs.
The T cells-tumor cells co-culture was plated in a Costar 96 well plate (Corning, Cat #3585) in T Cell Media [RPMI-1640 (ThermoFisher Scientific, Cat #21875-034); 10% FBS HyClone (GE healthcare, Cat #SH30070.03); 1% Non Essential Amino Acids (Thermo Fisher Scientific, Cat #11140-050); 1% Pen/Strep (Thermo Fisher Scientific, Cat #15140122); 1% HEPES (Lonza, Cat #17737E); Sodium Pyruvate (Thermo Fisher Scientific, Cat #11360-070); 50 μM Beta-mercaptoethanol (Thermo Fisher Scientific, Cat #31350)].
CD3hi TSP1 and CD3hi BSP1, diluted in T cell Media, were added to the cells at different concentrations (1 nM, 0.1 nM and 0.01 nM) and incubated in a 5% CO2, 37° C. incubator for 72 hrs. In order to be able to detect intracellular cytokines production, plates were incubated for the last 1.5 hrs of the co-culture with PMA (50 ng/ml; SIGMA, Cat #P1585)). Ionomycin (500 μg/ml; Calbiochem, Cat #407950); brefeldin (10 μg/ml; Cell Signaling, Cat #9972) was also added for the last 1.5 hours of the incubation.
At the end of the 72 hrs, cells were harvested and then stained with a viability die, Zombie Aqua (Biolegend, Cat #423102) by incubating at room temperature, for 10 mins. Cells were then washed twice using FACS Buffer and stained with antibodies against surface markers: anti-CD2 (Biolegend, Cat #300214), anti-CD28 (Biolegend, Cat #302922), anti-CCR7 (Biolegend, Cat #353226), and anti-CD45RO (Biolegend, Cat #304216). Intracellular IFN-g and granzyme B (GzB) were detected by treating T cells with BD cytofix cytoperm kit (BD, Cat #555028) according to the manufacturer's instructions, and staining them with anti-IFNg (Biolegend, Cat #502509) and anti-granzyme B antibodies (BD, Cat #560213). Samples were washed with FACS buffer and acquired on a BD LSR Fortessa (BD). Analysis was performed with FLOWJO software (version 10.6.0; Tree Star Inc.).

B1: CD3hi TSP1: Trispecific binding molecule: NEG258-based CD19 Fab, CD3hi anti-CD3 scFv, CD58 IgV domain, knob-into-hole silenced hIgG1 Fc (antibody)
heavy: QVQLVQSGAEVKKPGASVKVSCKASGYTFTTYWIQWVRQAPGQRLEWMGAVYPGDADTRYTQKFQGRVTLTADRSASTAYMELSSLRSEDTAVYYCGRDAGLEYYALDYWGQGTLVTVSSASTKGPSVFPLAPSSKSTSGGTAALGCLVKDYFPEPVTVSWNSGALTSGVHTFPAVLQSSGLYSLSSVVTVPSSSLGTQTYICNVNHKPSNTKVDKRVEPKSCGGGGSGGGGSEVQLVESGGGLVQPGGSLKLSCAASGFTFNTYAMNWVRQASGKGLEWVGRIRSKYNNYATYYADSVKDRFTISRDDSKSTLYLQMNSLKTEDTAVYYCVRHGNFGNSYVSWFAYWGQGTLVTVSSGGGGSGGGGSGGGGSGGGGSQAVVTQEPSLTVSPGGTVTLTCRSSTGAVTTSNYANWVQQKPGQAPRGLIGGTNKRAPWTPARFSGSLLGDKAALTLSGAQPEDEAEYFCALWYSNLWVFGGGTKLTVLGGGGSDKTHTCPPCPAPELLGGPSVFLFPPKPKDTLMISRTPEVTCVVVAVSHEDPEVKFNWYVDGVEVHNAKTKPREEQYASTYRVVSVLTVLHQDWLNGKEYKCKVSNKALAAPIEKTISKAKGQPREPQVCTLPPSREEMTKNQVSLSCAVKGFYPSDIAVEWESNGQPENNYKTTPPVLDSDGSFFLVSKLTVDKSRWQQGNVFSCSVMHEALHNHYTQKSLSLSPGK
light: EIVMTQSPATLSVSPGERATLSCRASQDVGTAVAWYQQKPGQAPRLLIYWASTRHTGIPARFSGSGSGTEFTLTISSLQSEDFAVYFCQQYANFPLYTFGQGTKLEIKRTVAAPSVFIFPPSDEQLKSGTASVVCLLNNFYPREAKVQWKVDNALQSGNSQESVTEQDSKDSTYSLSSTLTLSKADYEKHKVYACEVTHQGLSSPVTKSFNRGEC
chain: SQQIYGVVYGNVTFHVPSNVPLKEVLWKKQKDKVAELENSEFRAFSSFKNRVYLDTVSGSLTIYNLTSSDEDEYEMESPNITDTMKFFLYVLESGGGGSDKTHTCPPCPAPELLGGPSVFLFPPKPKDTLMISRTPEVTCVVVAVSHEDPEVKFNWYVDGVEVHNAKTKPREEQYASTYRVVSVLTVLHQDWLNGKEYKCKVSNKALAAPIEKTISKAKGQPREPQVYTLPPCREEMTKNQVSLWCLVKGFYPSDIAVEWESNGQPENNYKTTPPVLDSDGSFFLYSKLTVDKSRWQQGNVFSCSVMHEALHNHYTQKSLSLSPGK
T cell proliferation, potency compared between constructs ([1]; E:T 1:3, 96 hrs): more potent activity than CD3med TSP1 and CD3hi BSP1 | T cell proliferation, maximum percentage of proliferated T cells ([1]; in the presence of Karpas420 (so in the source)): more effectively induced T cell proliferation | proportion (%) of CD28- T cells IFNg+GzB+ [2]: more pronounced | GzB+ T cells and IFNg+ T cells, as MFI ([2]; 0.1 nM, presence and absence of irradiated PBMCs, CD28- and CD28+ subsets): clear increase | median fluorescence intensity (MFI) for IFNg and GzB ([2]; 1 nM, in particular CD28- T cells with irradiated PBMCs): clear shift in the median fluorescence intensity (MFI) for both cytokines | T cell surface phenotype (CD45RO, CCR7) of CD28- cells ([2]; 72 hrs treatment): re-aquired a central memory/effector memory phenotype | proliferation, potency compared between constructs ([2]; both concentrations tested, different E:T ratios): more potent in inducing proliferation of both T cells subsets compared to CD3hi BSP1 | proliferation of CD28+ and CD28- T cells (CFSE dilution) ([2]; co-culture with Nalm6, 72 hrs, with or without irradiated PBMCs): induced proliferation
